For one molecule, binding results are on record in article PMC10849602.

By UniProt entry, the sequences of proteins in these tests, tags left out.
UniProt Q04888: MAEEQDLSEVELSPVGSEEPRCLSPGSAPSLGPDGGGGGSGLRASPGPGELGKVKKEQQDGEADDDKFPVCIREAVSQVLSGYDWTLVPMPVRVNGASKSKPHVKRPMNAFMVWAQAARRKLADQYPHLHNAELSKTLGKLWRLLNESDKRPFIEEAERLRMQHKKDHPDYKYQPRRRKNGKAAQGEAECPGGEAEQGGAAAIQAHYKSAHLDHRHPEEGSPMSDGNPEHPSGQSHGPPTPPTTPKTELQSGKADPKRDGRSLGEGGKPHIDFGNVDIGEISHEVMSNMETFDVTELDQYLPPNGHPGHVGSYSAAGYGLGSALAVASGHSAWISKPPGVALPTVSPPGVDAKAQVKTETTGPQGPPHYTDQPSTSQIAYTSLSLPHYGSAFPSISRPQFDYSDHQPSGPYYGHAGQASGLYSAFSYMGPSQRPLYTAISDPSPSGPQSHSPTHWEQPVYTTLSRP
UniProt P35710: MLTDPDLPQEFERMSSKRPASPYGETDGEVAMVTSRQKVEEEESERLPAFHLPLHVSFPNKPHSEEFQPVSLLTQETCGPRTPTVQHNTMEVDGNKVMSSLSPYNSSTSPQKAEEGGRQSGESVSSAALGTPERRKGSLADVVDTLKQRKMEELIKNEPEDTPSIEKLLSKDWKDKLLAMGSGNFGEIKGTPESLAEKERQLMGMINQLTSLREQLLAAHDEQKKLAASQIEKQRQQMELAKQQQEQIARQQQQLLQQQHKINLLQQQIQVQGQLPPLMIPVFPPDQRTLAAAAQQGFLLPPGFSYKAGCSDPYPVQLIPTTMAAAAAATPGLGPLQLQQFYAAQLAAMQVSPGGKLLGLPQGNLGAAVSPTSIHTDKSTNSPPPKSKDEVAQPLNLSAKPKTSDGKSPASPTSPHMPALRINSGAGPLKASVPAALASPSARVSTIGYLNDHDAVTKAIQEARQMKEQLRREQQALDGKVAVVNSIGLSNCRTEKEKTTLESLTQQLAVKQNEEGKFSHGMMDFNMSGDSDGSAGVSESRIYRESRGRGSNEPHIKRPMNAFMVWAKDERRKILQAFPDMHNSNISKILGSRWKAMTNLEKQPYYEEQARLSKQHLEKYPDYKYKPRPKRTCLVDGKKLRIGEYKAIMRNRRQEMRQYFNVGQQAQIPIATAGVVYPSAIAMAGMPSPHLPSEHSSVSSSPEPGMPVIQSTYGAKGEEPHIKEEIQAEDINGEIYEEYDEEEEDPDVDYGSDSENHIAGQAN
UniProt P40645: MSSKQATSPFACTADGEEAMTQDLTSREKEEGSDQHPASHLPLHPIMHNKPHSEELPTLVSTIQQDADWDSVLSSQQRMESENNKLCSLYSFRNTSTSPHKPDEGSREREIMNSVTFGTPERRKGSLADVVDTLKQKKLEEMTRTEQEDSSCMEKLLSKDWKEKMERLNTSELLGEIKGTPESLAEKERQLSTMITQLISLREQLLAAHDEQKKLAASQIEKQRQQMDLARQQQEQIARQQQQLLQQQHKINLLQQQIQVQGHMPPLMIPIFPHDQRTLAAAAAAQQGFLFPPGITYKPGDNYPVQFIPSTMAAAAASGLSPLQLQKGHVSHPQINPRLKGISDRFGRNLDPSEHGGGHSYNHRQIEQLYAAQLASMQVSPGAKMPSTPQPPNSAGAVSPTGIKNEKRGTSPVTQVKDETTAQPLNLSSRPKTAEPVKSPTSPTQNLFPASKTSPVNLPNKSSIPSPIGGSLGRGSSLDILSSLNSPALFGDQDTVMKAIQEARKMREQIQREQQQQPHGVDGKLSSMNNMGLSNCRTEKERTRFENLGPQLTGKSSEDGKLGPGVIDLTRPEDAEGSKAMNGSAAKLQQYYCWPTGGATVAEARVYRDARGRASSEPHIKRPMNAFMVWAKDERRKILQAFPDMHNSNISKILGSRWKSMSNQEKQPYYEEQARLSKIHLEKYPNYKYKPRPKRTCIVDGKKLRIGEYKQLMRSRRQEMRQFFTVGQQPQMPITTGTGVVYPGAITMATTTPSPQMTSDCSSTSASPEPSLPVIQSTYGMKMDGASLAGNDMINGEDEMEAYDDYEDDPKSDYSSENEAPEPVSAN

Test in all cases: co-IP; RNF220 coexpressed with each transcription factor in HEK293 cells; which partner was precipitated is not given
Test [1] deals with T1, Ascl1, expressed in HEK293 cells (UniProt Q02067).
T1 sequence: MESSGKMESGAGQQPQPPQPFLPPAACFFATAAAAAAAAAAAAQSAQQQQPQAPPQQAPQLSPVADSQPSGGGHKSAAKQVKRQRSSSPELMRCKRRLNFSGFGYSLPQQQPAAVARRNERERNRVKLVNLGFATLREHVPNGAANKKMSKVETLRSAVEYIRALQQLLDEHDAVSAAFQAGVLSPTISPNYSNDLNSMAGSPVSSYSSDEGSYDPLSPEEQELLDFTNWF

In test [2] the target is T2, Hes5, expressed in HEK293 cells (UniProt P70120).
T2 sequence: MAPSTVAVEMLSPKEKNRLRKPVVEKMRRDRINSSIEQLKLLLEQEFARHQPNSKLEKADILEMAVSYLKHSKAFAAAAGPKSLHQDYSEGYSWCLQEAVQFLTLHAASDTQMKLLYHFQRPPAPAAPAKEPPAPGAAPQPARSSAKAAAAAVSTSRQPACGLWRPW

The target of test [3] is T3, Id2, expressed in HEK293 cells (UniProt P41136).
T3 sequence: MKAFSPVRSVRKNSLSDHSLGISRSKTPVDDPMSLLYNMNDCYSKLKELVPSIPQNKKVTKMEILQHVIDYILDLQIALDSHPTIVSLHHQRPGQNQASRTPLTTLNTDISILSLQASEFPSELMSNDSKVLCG

Test [4] has as its target T4, Id4, expressed in HEK293 cells (UniProt P41139).
T4 sequence: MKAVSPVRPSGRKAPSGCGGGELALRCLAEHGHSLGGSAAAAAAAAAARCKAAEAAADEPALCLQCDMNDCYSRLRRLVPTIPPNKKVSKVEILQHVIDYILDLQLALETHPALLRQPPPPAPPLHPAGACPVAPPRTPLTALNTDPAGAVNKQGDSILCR

For test [5], the target named is T5, Nkx2-2, expressed in HEK293 cells (UniProt P42586).
T5 sequence: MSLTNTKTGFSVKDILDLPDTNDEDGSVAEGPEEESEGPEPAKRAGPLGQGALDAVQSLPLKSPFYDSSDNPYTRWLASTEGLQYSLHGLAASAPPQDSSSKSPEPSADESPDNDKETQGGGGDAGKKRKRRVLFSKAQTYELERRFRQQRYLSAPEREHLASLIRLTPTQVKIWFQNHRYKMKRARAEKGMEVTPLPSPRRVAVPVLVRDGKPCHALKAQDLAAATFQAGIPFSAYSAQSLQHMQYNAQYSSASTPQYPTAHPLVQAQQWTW

Test [6] addresses T6, Olig1, expressed in HEK293 cells (mouse) (UniProt Q9JKN5).
T6 sequence: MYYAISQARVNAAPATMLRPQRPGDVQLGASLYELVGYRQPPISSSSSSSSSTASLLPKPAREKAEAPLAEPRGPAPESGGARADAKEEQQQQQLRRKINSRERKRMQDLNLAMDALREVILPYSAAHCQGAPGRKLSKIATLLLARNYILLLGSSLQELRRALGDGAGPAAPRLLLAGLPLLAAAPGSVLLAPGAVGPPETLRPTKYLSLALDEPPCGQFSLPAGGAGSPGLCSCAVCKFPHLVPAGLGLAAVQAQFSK

Test [7] deals with T7, Olig2, expressed in HEK293 cells (mouse) (UniProt Q9EQW6).
T7 sequence: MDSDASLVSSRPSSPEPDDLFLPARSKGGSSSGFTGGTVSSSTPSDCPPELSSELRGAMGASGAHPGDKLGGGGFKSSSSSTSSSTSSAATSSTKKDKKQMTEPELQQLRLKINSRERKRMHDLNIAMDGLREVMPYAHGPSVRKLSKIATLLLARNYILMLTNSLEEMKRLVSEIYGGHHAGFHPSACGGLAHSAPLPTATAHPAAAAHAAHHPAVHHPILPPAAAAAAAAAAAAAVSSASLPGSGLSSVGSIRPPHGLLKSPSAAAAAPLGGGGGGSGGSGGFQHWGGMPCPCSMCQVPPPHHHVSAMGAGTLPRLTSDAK

For test [8], the target named is Sox10, expressed in HEK293 cells (UniProt Q04888).
Test [9] concerns the target Sox5, expressed in HEK293 cells (UniProt P35710).
Test [10] has as its target Sox6, expressed in HEK293 cells (UniProt P40645).

Results are given in words; binding and its absence hold for the method and conditions named. Binding seen in cells or lysates may run through a third protein. Some results given as binding are weak or reduced against the parent protein; the word gives no strength.

B1: RNF220 (RING finger protein 220), wild type, expressed in HEK293 cells (enzyme, UniProt Q6PDX6 1-566)
chain: MDLHRAAFKMENSSYLPNPLASPALMVLASTAEASRDASIPCQQPRPFGVPVSVDKDVHIPFTNGSYTFASMYHRQGGVPGTFANRDFPPSLLHLHPQFAPPNLDCTPISMLNHSGVGAFRPFASTEDRESYQSAFTPAKRLKNCHDTESPHLRFSDADGKEYDFGTQLPSSSPGSLKVDDTGKKIFAVSGLISDRETSSSPEDRNDRCKKKAVALFDSQAPLCPICQVLLRPSELQEHMEQELEQLAQLPASKNSLLKDAMAPGTPKSLLLSASIKREGDSPTASPHSSATEDLHHSDRYQTFLRVRANRQTRLNARIGKMKRRKQDEGQREGSCMAEDDAVDIEHADSNRFEEYEWCGQKRIRATTLLEGGFRGSGFVMCSGKENPDSDADLDVDGDDTLEYGKPQYTEADVIPCTGEEPGEAKEREALRGAVLNGGPPSTRITPEFSKWASDEMPSTSNGEGSKQEAMQKTCKNSDIEKITEESAVTTFEALKARVRELERQLSRGDRYKCLICMDSYSMPLTSIQCWHVHCEECWLRTLGAKKLCPQCNTITAPGDLRRIYL
On to B1, for which the binding entry is recorded as “binds” in test [1]; “no binding” in test [2]; “no binding” in test [3]; “no binding” in test [4]; “no binding” in test [5]; “binds” in [6]. For the same molecule, the binding result in test [7] is “binds”; in test [8], “no binding”; in test [9], “no binding”; in test [10] it was “no binding”.
